The source gives no read counts; variants with many changes may rest on few reads.
B1: OR4K15 (parent)
chain: GUUAACGGUCAUAGGCCAUGGAAACUAGGAGCACCAUUUCGCUGCCAGUGAAGAAAUGAACAAAGAAAAUCUGGGCCAGGCAGGCAUCAAAAGAAAUAGUCUUGCGCUCAACCAGAAAGUCUGUAAUCAUUUUAAGGGUA

Variants of: B1
Assay: self-cleavage, relative activity (ratio to wild type); higher = more cleavage; in vitro, sequencing; the parent is a self-cleaving ribozyme

Row | Variant | self-cleavage
1 | GUUAACGGUCAUAGGCCAUGGAAACUAGGAGUACCAUUUCGCUGCCGGUGAAGAAAUGAACAAAGAAAAUCUGGGCCAGGCAGGCAUCUAAAGAAAUAGUCUUGCGCUCAACCAGAAAGUCUGUAAUCAUUUUAAGGGUA [C32U A47G A89U] | 2.31
2 | GUUAACGGUCAUAGGCCAUGGAAACUAGGAACACCAUUUCGCUACCAGUGAAGAAAUGAACAAAGAAAAUCUGGGCCAGGCAGGCAUCAAAAGAAAUAGUCUUGCGCUCAACCAGAAAGUCUGUAAUCGUUUUAAGGGUA [G31A G44A A129G] | 1.15
3 | GUUAACGGUCAUAGGCCAUGGAAACUAGGAUCACCAUUUCGCAGCCAGGGAAGAAAUGAACAAAUAGAAUCUGGGCCAGGCAGGCAUCAAAAGAAAUAGUCUCGCGCUCAACCAGAAAGUCUGUAAUCAUUUUAAGGGUA [G31U U43A U49G G65U A67G U103C] | 1.1
4 | GUUAACGGUCAUAGGCCAUGGAAACUAGGAGAACCAUUUCGCUGCCAGUGAAGAAAUGAACAAGGAAAAUCUGGGCCAGGCAGGCAUCAAAAGGAAUAGUCCUGCGCUCAACCAGAAAGUCUGUAAUCAUUUUAAGGGUA [C32A A64G A94G U102C] | 2.12
5 | GUUAACGGUCAUAGGCCAUGGAAACUAGGAACUCCAUUUCGCCGCCAGUGAAGAGAUGAGCGAAGAAAAUCUGGGCCAGGCAGGCAUCAAGAGAAAUAGUCUUGCGCUCAACCAGAAAGUCUGUAAUCAUUUUAAGGGUA [G31A A33U U43C A55G A60G A62G A91G] | 0.59
6 | GUUAACGGUCAUAGGCCAUGGAAACUAGGUGCACCAUUUCGCUGCCAGUGAAGAAAUGAACAAAGAAAAUCUGGGCCAGGCAGGCAUCAAAAGAAAUAGUCUUGCGCCCAACCGGAAAGUCUGUAAUCAUUUUAAGGGUA [A30U U108C A114G] | 0.01
7 | GUUAACGGUCAUAGGCCAUGGAAACUAGGAGUACCAUUUCGCUGCCAGUGAAGAAAUGAACCAAGAAAAUCUGGGCCAGGCAGGCAUCAAAAGAAAUAGUCUUGCGCUCAACCAGAGAGUCUGUAAUCAUUUUAAGGGUU [C32U A62C A117G A140U] | 1.58
8 | GUUAACGGUCAUAGGCCAUGGAAACUAGGAACACCACUUCGCUGCCAGUGAAGAAAUGAGCAAAGAAAAUCUGGGCCAGGCAGGCAUCAAAAGAAAUAGUCUUGCGCUCAACCAGAAAGUCUGUAAUCAUUUUAAGGGUA [G31A U37C A60G] | 1.3
9 | GUUAACGGUCAUAGGCCAUGGAAACUAGGAGUACCAUUUCGCUGCCAGUGAAGAAAUGAGCAAAGAAAAUCUGGGCCAGGCAGGCAUCAAGAGAAAUAGUCUUGCGCUCAACCAGAAAGUCUGUAACCAUUUUAAGGGUA [C32U A60G A91G U127C] | 0.64
10 | GUUAACGGUCAUAGGCCAUGGAAACUAGGUGCACCAUUUCGCUGCCAGUGAAGAAAUGAACAAAGAAAAUCUGGGCCAGGCAGGCAUCAAAAGAAAUAGUCUUGCGCUCAACCAGAAAGUCCGUAAUCAUCUUAAGGGUA [A30U U122C U131C] | 0.28
11 | GUUAACGGUCAUAGGCCAUGGAAACUAGGAGUACCAUUUCGCUGCCAGUGAAGAAAUGAACAAAGAAAACCUGGGCCAGGCAGGCACCAAAAGAAAUAGUCCUGCGCUCAACCAGAAAGUCUGUAAUCAUUUUAAGGGUA [C32U U70C U87C U102C] | 1.65
12 | GUUAACGGUCAUAGGCCAUGGAAACUAGGAGUACCACUUCGCUGCCAGUGAUGAAAUGAACAAAGAAAAUCUGGGCCAGGCAGGCAUCAAAAGAAAUAGUCUUGCGCUCAACCAGAAAGUCUGUAAUCAUUUUAAGGGUA [C32U U37C A52U] | 1.54
13 | GUUAACGGUCAUAGGCCAUGGAAACUAGGAGAACCAUUUCGCUGCCAGUGAAGAAAUGAACGAAGAAAAUCUGGGCCAGGCAGGCAUCAAAAGAAAUAGCCUUGCGCUCAACCAGAAAGUCAGUAAUCAUUUUAAGGGUA [C32A A62G U100C U122A] | 2.98
14 | GUUAACGGUCAUAGGCCAUGGAAACUAGGAGAACCAUUUCGCUGCCAGAGAAGAAAUGAACAAAGAAAAUCUGGGCCUGGCAGGCAUCAAAAGAAAUAGUCUUGCGCUCAACCAGAAAGUCUGUAAUCAUUUUAAGGGUA [C32A U49A A78U] | 0.44
15 | GUUAACGGUCAUAGGCCAUGGAAACUAGGAGUACCAUUUCGCUGCCAGUGAGGAAAUGAACGAAGAAAAUCUGGGCCAGGCAGGCAUCAAAAGAAAUAGUCUUGCGCACAACCAGAAAGUCUGUAAUCAUUUUAAGGGUA [C32U A52G A62G U108A] | 0.01
16 | GUUAACGGUCAUAGGCCAUGGAAACUAGGAACACCAUUUCGCAGCCAGUGAAGAAAUGAACAAAGGAAAUCUGGGCCAGGCAGGCAUCAAAAGAAAUAGUCUUGCGCUCAACCAGAAAGUCUGUAAUCAUUUUAAGGGUA [G31A U43A A66G] | 0.86
17 | GUUAACGGUCAUAGGCCAUGGAAACUAGGAGGACCAUUUCGCUGCCAGUGAAGAAAUGAACAAAGAAAAUCUGGGCCUGGCGGGCAUCAAAAGAAAAGGUCUUGCGCUCAACCAGAAGGUCUGUAAUCAUUUUAAGGGUA [C32G A78U A82G U97A A98G A118G] | 0.1
18 | GUUAACGGUCAUAGGCCAUGGAAACUAGGAGUACCAUUUCGCUGCCAGCGGAGAAAUGAACAAAGAAAAUCUGGGCCAGGCUGGCAUCAAAAGAAAUAGUCUUGCGCUCAACCAGAAAGUCUGUGAUCAUUUUAAGGGUA [C32U U49C A51G A82U A125G] | 0.05
19 | GUUAACGGUCAUAGGCCAUGGAAACUAGGAACACCGUUUCGCUGCCAGGUAAGAAAUGAACAAAGAAAAUCUGGGCCAGGCAGGCAUCAAAAGAAAUAGUCUUGCGCUCAACCAGAAGGUCUGUGAUCAUUUUAAGGGUA [G31A A36G U49G G50U A118G A125G] | 0.19
20 | GUUAACGGUCAUAGGCCAUGGAAACUAGGAGUACCAUUUCGCUGCCAGUGAAGAAAUGAACAAAGAAAAUCUGGGCCAGGCAGGCAUCUAAAGAAAUAGUCUCGCGCUCAACCAGAAAGUCUGUAAUCAUUUUAAGGGUA [C32U A89U U103C] | 0.95
21 | GUUAACGGUCAUAGGCCAUGGAAACUAGGAGUACCAUUUCGCUGCCAGUGAAGAAAUGGACAAAGAAAAUCUGGGCCAGGCAGGCAUCAAAAGAAAUAGUCUUGCGCUUAACCAGAAAGUCUGUAAUCAUUUUAAGGGUA [C32U A59G C109U] | 0.52

Row | Variant | self-cleavage
22 | GUUAACGGUCAUAGGCCAUGGAAACUAGGAGUACCAUUUCGCUGCCAGUGAGGAAAUGAACAAAGAAAAUCUGGGCCAGGCAGGCAUCAAAAGAAAUAGUCUUGCGCUCAACCAGAAAGUCCGUAAUCAUUUUAAGGGUA [C32U A52G U122C] | 1.46
23 | GUUAACGGUCAUAGGCCAUGGAAACUAGGUGCACCAUUUCGCUGCCAGUGAAGAAAUGAACAAAGAAAAUCUGGGCCAGGCAGGCAUCAAAAGAAAUAGUCUUGCGCCCAACCAGAAGGUCUGUAAUCAUUUUAAGGGUA [A30U U108C A118G] | 0.01
24 | GUUAACGGUCAUAGGCCAUGGAAACUAGGAGAACCAUUUCGCUGCCAGUGAAGAAAUGAACAAAGAGAAUCUGGGCCAGGCAGGCAUCAAAAGAAAUAGUCUUGCGCUCAACCAGAAGGUCUGUAAUCAUUUUAAGGGUA [C32A A67G A118G] | 1.43
25 | GUUAACGGUCAUAGGCCAUGGAAACUAGGACCACCAUUUCGCUGCCAGUGAAGAAAUGAACAAAGAAAACCUGGGCCAGGCAGGCAUCAAAGGAAAUAGUCUUGCGCUCAACCAGAAAGUCUGUAAUCAUUUUAAGGGUA [G31C U70C A92G] | 0.33
26 | GUUAACGGUCAUAGGCCAUGGAAACUAGGAGUACCAUUUCGCUGCCAGUGAAGAAAUGAACAAAGAAAACCUGGGCCAGGCAGGCAUCGAAAGAGAUAGUCUUGCGCUCAACCAGAAAGUCUGUAAUCAUUUUAAGGGUA [C32U U70C A89G A95G] | 1.64
27 | GUUAACGGUCAUAGGCCAUGGAAACUAGGAAUACCAUUUCGCUGCCAGUGAAGAAAUGAACGUAGGAAAUCUGGGCCAGGCCGGCAUCAAAAGAAAUAGUCUUGCGCUCAACCAGAAAGUCUGUAAUCAUUUUAAGGGUA [G31A C32U A62G A63U A66G A82C] | 0.09
28 | GUUAACGGUCAUAGGCCAUGGAAACUAGGAACACCAUUUCGCUGCCGGUGAAGAAAUGAACAAAGAAAAUCUGGGCCAGGCAGGCAUCAAAAGGAAUAGUCUUGCGCUCAACCAGAAAGUCUGUAAUCAUUUUAAGGGUA [G31A A47G A94G] | 0.86
29 | GUUAACGGUCAUAGGCCAUGGAAACUAGGAACACCAUUUCGCUGCCAGUGAAGGAAUGAACAAAGAAAAUCUGGGCCAGGCAGGCAUCAAAAGAAAUGGUCUUGCGCUCAACCAGAAAGUCUGUAAUCAUCUUAAGGGUA [G31A A54G A98G U131C] | 0.27
30 | GUUAACGGUCAUAGGCCAUGGAAACUAGGAGAACCACUUCGCUGCCAGUGAAGAAAUGAACAAAGAAAAUCUGGGCCAGGCAGGCAUCAAAGGAAAUAGUCUUGCGCUCAACCAGUAAGUCUGUAAUCAUUUUAAGGGUA [C32A U37C A92G A116U] | 0.4
31 | GUUAACGGUCAUAGGCCAUGGAAACUAGGACCACCAUUUCGCUGCCAGUGAAGAAAUGGACAAAGAAAAUCUGGGCCAGGCAGGCAUCAAGAGAAAUAGUCUUGCGCUCAACCAGAAAGUCUGUAAUCAUUUUAAGGGUA [G31C A59G A91G] | 1.14
32 | GUUAACGGUCAUAGGCCAUGGAAACUAGGAACACCACUUCGCUGCCAGUGAAGAAAUGAACAAAGAAGAUCUGGGCCAGGCAGGCAUCGAAAGAAAUAGUCUUGCGCUCAACCAGAAAGUCUGUAAUCAUUUUAAGGGUA [G31A U37C A68G A89G] | 1.27
33 | GUUAACGGUCAUAGGCCAUGGAAACUAGGAGUACCAUUUCGCUGCCAGUGAAGAAAUGAACAAAGAAAAUCUGGGCCGGGCAGGCAUCAAAAAAAAUAGUCUUGCGCUCAACCAGAAAGUCUGUAAUCAUUUUAAGGGUA [C32U A78G G93A] | 0.44
34 | GUUAACGGUCAUAGGCCAUGGAAACUAGGAGGACCAUUUCGCUGCCAGUGGAGAAAUGAACAAAGAAAAUCCGGGCCAGGCAGGCAUCAAAAGAAAUAGUCUUGCGCUCAACCAGAAAGUCUGUAAUCAUUUUAAGGGUA [C32G A51G U72C] | 0.17
35 | GUUAACGGUCAUAGGCCAUGGAAACUAGGUGCACCAUUUCGCUGCCAGUGAAGAAAUGAACAAAGAAAAUCCGGGCCAGGCAGGCAUCAAAAGAAACAGUCUUGCGCUCAACCAGAAAGUCUGUAAUCAUUUUAAGGGUA [A30U U72C U97C] | 0.11
36 | GUUAACGGUCAUAGGCCAUGGAAACUAGGAGUACCAUUUUGCUGCCAGUGAAGAAAUGAACAAAGAGAAUCUGGGCCAGGCAGGCAUCAAAAGAAAUAGUCUUGCGCUCAACCAGAAGGUCUGUAAUCAUCUUAAGGGUA [C32U C40U A67G A118G U131C] | 0.72
37 | GUUAACGGUCAUAGGCCAUGGAAACUAGGAACCCCAUUUCGCUGCCAGUGAAGAAACGAACAAAGAAAAUCUGGGCCAGGCAGGCAUCAAAAGAAAUAGUCUCGCGCUCAACCAGAAAGUCUGUAAUCAUUUUGAGAGUA [G31A A33C U57C U103C A134G G137A] | 0.15
38 | GUUAACGGUCAUAGGCCAUGGAAACUAGGAGCCCCAUUUCGCUGCCAGUGAAGAAAUGAACAAAGAAAAUCUGGGCCGGGCAGGCAUCAAAAGAAAUAGUUUUGCGCUCAACCAGAAGGUCUGUAACCAUUUUAAGGGUA [A33C A78G C101U A118G U127C] | 0.01
39 | GUUAACGGUCAUAGGCCAUGGAAACUAGGAGUACCAUCUCGCUGCCAGUGAAGAAAUGGACAAAGGAAAUCUGGGCCGGGCAGGCAUCAAAAGAAAUAGUCUUGCGCUCAACCAGAAAGUCUGUAAUCAUUUUAAGGGUA [C32U U38C A59G A66G A78G] | 0.2
40 | GUUAACGGUCAUAGGCCAUGGAAACUAGGAACACCACUUCGCUGCCAGUGAAGAAAUGUACAGAGAAAAUCUGGGCCAGGCAGGCAUCAAAAAAAAUAGUCUUGCGCUCAACCAGAAAGUCUGUAAUCAUUUUAAGGGUA [G31A U37C A59U A63G G93A] | 1.27
41 | GUUAACGGUCAUAGGCCAUGGAAACUAGGAACACCAUUUCGCUGCCAGUGAAGAAAUGAACAAAGAAAAUCUGGGCCAGGCAGGCAUCAAAAGAAAUAGUCUUGCGCUCAACCAGAAAGUCUGUAAUCAUUUUAAGGAUG [G31A G138A A140G] | 0.41

From the RNAGym collection of RNA variant scans (doi:10.7554/elife.90254)
